This passage reports binding results from article PMC6941957.

Chains of the proteins cited; added tags and fusions are not shown.
UniProt O70511: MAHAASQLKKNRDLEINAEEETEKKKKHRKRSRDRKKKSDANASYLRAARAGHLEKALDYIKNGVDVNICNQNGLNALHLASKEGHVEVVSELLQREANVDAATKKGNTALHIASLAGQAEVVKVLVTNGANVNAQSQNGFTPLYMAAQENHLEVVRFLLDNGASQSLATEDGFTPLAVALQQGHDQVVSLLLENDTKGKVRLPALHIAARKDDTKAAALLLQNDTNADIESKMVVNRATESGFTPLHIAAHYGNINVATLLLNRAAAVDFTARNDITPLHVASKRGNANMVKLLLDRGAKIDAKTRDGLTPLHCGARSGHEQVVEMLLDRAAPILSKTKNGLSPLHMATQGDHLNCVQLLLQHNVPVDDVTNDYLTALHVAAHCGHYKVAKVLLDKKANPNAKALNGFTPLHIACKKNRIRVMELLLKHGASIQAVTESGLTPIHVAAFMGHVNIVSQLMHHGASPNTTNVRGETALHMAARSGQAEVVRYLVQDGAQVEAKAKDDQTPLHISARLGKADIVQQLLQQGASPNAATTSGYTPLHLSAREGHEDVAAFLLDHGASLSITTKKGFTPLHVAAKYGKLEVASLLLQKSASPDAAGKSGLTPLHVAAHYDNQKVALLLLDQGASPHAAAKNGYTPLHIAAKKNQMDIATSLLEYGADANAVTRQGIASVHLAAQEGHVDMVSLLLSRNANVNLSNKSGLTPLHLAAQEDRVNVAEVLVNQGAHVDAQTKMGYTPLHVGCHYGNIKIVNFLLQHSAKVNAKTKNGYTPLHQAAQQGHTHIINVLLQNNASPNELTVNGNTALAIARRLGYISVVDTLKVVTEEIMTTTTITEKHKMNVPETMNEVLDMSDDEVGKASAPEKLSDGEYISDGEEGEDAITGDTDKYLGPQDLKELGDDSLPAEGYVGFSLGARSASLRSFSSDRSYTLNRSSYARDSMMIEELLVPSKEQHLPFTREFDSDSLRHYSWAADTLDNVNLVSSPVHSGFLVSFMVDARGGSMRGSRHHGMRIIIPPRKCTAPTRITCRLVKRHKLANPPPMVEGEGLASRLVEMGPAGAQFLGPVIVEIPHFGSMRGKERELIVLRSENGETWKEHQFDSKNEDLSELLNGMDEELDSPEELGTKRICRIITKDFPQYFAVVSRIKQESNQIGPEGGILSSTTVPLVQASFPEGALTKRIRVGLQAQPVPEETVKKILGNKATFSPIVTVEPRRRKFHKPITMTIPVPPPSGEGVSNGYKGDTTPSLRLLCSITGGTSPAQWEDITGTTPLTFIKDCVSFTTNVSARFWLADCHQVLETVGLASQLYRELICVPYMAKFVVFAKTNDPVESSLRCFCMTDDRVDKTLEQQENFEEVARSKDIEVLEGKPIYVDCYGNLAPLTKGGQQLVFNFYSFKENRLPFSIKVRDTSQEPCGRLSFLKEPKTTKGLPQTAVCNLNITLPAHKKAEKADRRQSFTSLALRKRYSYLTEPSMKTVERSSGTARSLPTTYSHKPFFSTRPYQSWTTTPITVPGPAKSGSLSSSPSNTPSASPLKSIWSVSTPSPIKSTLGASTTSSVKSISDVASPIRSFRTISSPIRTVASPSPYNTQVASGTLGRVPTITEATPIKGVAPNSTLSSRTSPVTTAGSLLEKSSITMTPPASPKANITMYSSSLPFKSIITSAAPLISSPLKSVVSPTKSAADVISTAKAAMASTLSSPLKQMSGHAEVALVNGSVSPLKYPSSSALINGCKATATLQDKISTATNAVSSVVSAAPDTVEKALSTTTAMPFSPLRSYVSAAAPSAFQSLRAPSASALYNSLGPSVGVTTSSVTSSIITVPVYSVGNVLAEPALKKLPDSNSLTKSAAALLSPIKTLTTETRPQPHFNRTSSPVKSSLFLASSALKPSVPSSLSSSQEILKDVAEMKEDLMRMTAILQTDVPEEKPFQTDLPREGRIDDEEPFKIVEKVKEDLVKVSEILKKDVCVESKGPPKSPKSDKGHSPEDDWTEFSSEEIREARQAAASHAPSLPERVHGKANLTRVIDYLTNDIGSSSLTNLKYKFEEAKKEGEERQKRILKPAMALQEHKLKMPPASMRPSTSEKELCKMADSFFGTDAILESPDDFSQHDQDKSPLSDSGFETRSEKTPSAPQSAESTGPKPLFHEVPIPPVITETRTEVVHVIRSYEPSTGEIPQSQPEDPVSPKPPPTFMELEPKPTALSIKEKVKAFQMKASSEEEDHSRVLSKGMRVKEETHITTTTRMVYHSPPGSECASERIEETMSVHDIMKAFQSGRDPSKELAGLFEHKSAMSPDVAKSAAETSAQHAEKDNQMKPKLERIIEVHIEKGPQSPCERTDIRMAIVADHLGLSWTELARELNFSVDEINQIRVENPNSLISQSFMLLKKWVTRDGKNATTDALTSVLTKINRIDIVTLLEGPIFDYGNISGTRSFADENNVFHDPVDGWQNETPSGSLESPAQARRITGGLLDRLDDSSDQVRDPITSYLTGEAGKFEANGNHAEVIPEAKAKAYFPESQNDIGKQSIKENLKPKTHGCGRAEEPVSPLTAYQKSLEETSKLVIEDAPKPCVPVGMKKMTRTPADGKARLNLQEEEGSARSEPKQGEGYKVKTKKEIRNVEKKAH
UniProt Q8CJ19: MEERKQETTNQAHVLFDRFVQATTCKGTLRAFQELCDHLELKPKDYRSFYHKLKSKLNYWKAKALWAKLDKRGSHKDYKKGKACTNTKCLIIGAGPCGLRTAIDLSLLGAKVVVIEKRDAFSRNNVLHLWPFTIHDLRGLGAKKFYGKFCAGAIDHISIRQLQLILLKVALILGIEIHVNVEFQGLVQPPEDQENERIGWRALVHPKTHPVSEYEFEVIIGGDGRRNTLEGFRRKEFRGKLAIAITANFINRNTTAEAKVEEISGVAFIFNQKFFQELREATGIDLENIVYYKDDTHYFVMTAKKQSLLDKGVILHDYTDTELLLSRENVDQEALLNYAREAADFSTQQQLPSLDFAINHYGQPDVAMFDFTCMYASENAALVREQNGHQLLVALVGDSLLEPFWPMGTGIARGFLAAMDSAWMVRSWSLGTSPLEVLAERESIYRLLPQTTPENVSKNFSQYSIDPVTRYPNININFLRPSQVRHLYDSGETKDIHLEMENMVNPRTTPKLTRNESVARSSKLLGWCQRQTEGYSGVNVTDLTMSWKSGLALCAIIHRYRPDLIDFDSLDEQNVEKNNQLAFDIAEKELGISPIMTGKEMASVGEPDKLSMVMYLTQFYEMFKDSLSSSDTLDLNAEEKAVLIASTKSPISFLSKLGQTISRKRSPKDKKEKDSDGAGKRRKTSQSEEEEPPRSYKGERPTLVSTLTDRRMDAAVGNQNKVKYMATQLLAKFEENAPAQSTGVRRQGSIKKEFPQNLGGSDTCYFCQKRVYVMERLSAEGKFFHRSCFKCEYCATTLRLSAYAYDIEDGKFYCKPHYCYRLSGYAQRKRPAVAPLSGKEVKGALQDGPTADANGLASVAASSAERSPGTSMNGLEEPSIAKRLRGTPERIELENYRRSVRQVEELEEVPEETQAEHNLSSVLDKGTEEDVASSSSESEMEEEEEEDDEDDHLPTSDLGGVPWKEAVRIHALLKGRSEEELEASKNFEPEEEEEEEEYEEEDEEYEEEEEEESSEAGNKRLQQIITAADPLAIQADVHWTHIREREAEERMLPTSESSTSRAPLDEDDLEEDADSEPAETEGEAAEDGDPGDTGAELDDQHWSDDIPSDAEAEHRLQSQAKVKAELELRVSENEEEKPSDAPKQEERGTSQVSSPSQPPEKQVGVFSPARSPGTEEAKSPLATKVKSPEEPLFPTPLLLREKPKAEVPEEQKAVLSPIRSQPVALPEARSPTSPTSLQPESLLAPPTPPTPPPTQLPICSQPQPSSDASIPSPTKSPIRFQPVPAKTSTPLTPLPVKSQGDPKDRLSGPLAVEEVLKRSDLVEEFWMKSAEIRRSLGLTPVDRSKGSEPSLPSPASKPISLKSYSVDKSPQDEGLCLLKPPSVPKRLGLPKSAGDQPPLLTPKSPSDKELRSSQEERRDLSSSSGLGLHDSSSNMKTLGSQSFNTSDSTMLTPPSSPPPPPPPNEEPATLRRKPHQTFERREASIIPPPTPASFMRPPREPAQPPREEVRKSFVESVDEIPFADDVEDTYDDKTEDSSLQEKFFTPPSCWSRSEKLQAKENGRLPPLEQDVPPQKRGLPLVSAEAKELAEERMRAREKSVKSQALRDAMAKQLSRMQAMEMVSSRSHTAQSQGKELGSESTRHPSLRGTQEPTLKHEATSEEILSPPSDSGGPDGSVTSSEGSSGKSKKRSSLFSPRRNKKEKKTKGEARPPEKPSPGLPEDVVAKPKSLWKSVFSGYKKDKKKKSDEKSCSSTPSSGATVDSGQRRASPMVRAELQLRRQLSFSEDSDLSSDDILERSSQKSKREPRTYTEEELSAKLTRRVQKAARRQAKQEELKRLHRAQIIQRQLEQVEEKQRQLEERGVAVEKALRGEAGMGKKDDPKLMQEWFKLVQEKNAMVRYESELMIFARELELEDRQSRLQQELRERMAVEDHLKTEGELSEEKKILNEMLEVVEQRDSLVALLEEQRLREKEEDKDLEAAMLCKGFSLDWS
UniProt P55258: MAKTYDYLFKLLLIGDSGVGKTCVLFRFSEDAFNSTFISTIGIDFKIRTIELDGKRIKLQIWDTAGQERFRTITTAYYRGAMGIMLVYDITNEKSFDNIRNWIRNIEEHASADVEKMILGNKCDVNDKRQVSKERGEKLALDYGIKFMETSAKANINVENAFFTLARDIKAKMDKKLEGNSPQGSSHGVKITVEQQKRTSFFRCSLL
UniProt P61028: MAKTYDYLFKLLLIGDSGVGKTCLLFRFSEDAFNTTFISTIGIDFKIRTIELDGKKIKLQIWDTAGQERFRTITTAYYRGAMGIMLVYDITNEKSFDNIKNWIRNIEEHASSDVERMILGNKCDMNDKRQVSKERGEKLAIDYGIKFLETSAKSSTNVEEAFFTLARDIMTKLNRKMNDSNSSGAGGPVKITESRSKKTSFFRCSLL
UniProt Q6PHN9: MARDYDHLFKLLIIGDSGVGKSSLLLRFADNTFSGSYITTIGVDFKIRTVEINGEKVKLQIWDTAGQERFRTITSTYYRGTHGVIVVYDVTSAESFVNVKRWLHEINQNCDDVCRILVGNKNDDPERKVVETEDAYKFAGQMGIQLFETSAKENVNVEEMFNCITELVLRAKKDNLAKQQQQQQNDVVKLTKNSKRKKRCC

Where two headings read alike, the source gives them in different places. Results are given in words; binding and its absence hold for the method and conditions named. Binding seen in cells or lysates may run through a third protein. Some results given as binding are weak or reduced against the parent protein; the word gives no strength. For some assays here: Tags and fused reporters may be left off the sequences shown.

One assay has as its target T1, Sept6-FLAG (mouse) (UniProt Q9R1T4).
T1 sequence: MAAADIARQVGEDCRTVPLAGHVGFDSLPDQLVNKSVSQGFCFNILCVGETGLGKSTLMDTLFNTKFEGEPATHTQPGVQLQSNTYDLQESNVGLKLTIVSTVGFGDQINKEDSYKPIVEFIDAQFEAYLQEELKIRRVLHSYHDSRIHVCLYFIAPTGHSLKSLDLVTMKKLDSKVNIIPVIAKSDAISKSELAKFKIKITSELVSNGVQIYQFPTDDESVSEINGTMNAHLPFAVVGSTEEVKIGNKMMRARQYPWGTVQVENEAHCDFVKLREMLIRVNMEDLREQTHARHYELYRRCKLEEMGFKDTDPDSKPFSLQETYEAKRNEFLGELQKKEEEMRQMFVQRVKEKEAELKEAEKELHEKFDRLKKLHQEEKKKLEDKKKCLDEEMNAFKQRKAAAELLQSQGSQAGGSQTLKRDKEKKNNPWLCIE
Description: co-IP; 'in vitro co-immunoprecipitation': HEK293T cells transfected 48 h, lysed in RIPA or lysis buffer (50 mM Tris-HCl pH 8.0, 150 mM NaCl, 1 mM EDTA, 0.1% Triton X-100), protein G resin with primary antibody, immunoblot. On the technique in general: A western blot detects proteins with antibodies after separation by electrophoresis.

Another assay has as its target T2, Sept5-FLAG (mouse) (UniProt Q9Z2Q6).
T2 sequence: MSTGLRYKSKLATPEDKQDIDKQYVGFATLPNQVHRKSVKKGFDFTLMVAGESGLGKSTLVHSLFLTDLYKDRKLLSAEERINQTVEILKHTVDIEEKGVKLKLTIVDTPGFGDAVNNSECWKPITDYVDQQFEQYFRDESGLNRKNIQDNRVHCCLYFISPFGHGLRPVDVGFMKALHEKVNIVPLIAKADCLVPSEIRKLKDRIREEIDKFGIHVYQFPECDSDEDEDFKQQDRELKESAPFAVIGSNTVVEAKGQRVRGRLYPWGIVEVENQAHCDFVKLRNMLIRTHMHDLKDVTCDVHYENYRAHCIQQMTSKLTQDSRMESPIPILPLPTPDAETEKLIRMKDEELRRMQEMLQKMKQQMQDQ
Described as above.

The target in the next assay is α2-spectrin-GFP (UniProt Q13813). Described as above.
Another assay concerns the target AnkG-GFP (UniProt O70511). The assay is described as above.
The target in assay [1] is T3, NF186 (in vitro co-immunoprecipitation) (rat) (UniProt P97685).
T3 sequence: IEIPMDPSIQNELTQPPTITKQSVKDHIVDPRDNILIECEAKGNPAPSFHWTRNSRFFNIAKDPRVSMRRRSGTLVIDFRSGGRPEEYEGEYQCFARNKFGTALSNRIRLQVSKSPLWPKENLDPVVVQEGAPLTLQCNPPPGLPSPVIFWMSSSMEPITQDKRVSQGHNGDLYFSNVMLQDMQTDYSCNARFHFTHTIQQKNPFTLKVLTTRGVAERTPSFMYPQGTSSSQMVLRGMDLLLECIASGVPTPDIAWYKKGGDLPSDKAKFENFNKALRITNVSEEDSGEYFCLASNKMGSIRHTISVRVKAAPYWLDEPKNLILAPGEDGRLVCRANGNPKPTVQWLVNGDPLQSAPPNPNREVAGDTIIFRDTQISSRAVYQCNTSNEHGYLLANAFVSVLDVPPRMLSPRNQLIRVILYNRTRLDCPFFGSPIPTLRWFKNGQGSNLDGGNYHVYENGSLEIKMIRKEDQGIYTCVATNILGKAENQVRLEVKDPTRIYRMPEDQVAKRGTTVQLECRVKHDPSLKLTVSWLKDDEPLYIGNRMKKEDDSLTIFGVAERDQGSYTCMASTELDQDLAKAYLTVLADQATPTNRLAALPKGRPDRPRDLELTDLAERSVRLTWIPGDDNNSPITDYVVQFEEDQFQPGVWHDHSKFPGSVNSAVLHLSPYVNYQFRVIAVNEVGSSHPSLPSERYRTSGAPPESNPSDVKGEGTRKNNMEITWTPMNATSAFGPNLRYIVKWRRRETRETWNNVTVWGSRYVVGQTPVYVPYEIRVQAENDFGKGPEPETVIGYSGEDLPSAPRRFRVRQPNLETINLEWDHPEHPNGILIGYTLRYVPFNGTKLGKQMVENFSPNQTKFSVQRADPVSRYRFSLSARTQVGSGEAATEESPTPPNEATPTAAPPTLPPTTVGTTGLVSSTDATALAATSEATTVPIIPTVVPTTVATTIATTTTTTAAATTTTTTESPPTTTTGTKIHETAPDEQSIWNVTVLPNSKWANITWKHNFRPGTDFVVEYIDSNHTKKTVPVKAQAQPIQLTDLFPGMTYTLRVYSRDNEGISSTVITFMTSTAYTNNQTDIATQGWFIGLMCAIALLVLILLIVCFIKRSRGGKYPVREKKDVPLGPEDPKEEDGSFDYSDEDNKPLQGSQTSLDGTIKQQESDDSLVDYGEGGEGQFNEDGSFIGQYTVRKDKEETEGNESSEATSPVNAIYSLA
Described as above.

Assay [2] has as its target GST-α2 spectrin (AA 572-1338) (UniProt Q13813). Description: pull-down; HEK293T co-transfected with Mical3-myc and α2 spectrin GST fusion protein, lysis in 150 mM NaCl, 20 mM Tris-HCl pH 8.0, 10 mM EDTA, 1% Triton X-100; glutathione sepharose 4B beads overnight at 4 °C; blots with anti-myc and anti-GST.
Assay [3] concerns the target Mouse Mical3-6xMyc (mouse) (UniProt Q8CJ19). Description: co-IP; 'in vitro co-immunoprecipitation': HEK293T cells transfected 48 h, lysed in RIPA or lysis buffer (50 mM Tris-HCl pH 8.0, 150 mM NaCl, 1 mM EDTA, 0.1% Triton X-100), protein G resin with primary antibody, immunoblot.
The target of assay [4] is Mical3 (endogenous, mouse brain) (mouse (endogenous in brain)) (UniProt Q8CJ19). Put plainly: co-IP; mouse brain homogenate lysed in RIPA buffer, protein G resin with anti-Mical3, immunoblot.
Assay [5] addresses Mouse Mical3-6xMyc (mouse) (UniProt Q8CJ19). Description: co-IP; 'in vitro co-immunoprecipitation': HEK293T cells transfected 48 h, lysed in RIPA or lysis buffer (50 mM Tris-HCl pH 8.0, 150 mM NaCl, 1 mM EDTA, 0.1% Triton X-100), protein G resin with primary antibody, immunoblot. The source holds these as a separate data set.

Regarding AnkG-GFP (from UniProt O70511 1-2622), the binding result with Sept6-FLAG (mouse) and with Sept5-FLAG (mouse) was “binds” throughout.
As to “Mouse Mical3-6xMyc (from UniProt Q8CJ19 1-1993)”, the binding result with α2-spectrin-GFP is listed as “binds”; with AnkG-GFP it was “no binding”; in assay [1], “no binding”; in assay [2], “binds”.
Rab8a-tRFP (from UniProt P55258 1-207): the binding result in assay [3] is “binds”.
Consider Rab8b-tRFP (from UniProt P61028 1-207), for which the binding entry in [3] is given as “binds”.
Regarding Rab35-tRFP (from UniProt Q6PHN9 1-201), in [3], the binding entry is “no binding”.
“α2 spectrin (endogenous, mouse brain) (from UniProt P16546 1-2472)”: in [4], the binding result is “binds”.

B1: Rab36-tRFP (protein, UniProt Q8CAM5 1-267)
chain: MRSSWTPLGPPVSQDRIITSFPKWYTPDACLQLKEHFHSRVSTACQHRNTGTAGLRLSKVVVVGDLYVGKTSLIHRLCKNVFDHDYKATIGVDFEIERFEIAGIPYSLQIWDTAGQEKFKCIASAYYRGAQVIITAFDLTDVQTLEHTRQWLEDVLRENEAGSCFIFLVGTKKDLLSGAACEQAEAEAVHLANEMQAEYWSVSAKTGENVKAFFSRVAALAFEQSVLQDLEKRPSTQSQVGDGDGDLIRIEVPKTQENKRPPGLGCC
For B1, in [5], the binding entry is given as “binds”.
